# In article PMC4336329 (PLoS ONE, 2015):
# Among all 310,000 compounds or so, about 14,000 (4.5%) showed an effect of 50% or more. The effect is printed as a negative number. Some of the results follow.
# Biological target: human ether-à-go-go-related gene (hERG) potassium channel (human, UniProt Q12809)
# Assay: primary screen, population patch clamp on CHO cells stably expressing hERG
# 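Also: peak tail current of the secondary pulse compared with the same well before compound.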
# Chain of human ether-à-go-go-related gene (hERG) potassium channel (Q12809 whole entry, looked up): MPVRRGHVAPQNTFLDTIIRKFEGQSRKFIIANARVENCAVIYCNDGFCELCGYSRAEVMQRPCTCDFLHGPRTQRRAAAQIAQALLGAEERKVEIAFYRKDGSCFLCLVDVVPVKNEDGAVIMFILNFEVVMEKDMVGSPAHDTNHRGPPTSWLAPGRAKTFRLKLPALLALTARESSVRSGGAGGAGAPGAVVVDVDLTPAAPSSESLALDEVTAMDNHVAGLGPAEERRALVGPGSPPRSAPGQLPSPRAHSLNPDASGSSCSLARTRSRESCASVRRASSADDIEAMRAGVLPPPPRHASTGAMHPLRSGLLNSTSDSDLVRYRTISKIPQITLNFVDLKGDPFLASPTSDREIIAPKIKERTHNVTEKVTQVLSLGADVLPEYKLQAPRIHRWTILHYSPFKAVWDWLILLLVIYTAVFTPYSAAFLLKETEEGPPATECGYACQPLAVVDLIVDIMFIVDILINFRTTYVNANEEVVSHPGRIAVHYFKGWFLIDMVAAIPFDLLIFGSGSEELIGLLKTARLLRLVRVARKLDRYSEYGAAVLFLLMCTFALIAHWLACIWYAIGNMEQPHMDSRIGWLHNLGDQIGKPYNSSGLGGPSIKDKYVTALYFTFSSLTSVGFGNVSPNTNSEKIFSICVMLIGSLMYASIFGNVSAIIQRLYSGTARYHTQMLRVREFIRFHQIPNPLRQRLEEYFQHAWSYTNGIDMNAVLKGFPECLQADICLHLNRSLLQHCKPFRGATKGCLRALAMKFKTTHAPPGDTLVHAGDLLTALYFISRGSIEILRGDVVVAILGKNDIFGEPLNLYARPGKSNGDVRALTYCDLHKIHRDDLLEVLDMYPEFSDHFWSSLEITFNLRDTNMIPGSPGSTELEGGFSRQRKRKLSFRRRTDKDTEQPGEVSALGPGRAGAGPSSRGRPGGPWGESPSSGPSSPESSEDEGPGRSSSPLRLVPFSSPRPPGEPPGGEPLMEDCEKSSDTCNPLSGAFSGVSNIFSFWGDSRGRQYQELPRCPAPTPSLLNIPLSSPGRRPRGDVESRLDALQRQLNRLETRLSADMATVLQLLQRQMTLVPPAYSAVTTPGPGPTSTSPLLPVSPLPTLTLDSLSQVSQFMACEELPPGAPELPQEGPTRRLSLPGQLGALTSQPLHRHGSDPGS
row,SMILES,"hERG current change (%, negative = inhibition) at 10uM [%]"
1,CCCn1c(S(=O)(=O)O)nc2ccccc21,-0.963
2,COc1ccccc1CCNC(=O)c1ccc(OC)c(OC2CCN(C(C)C)CC2)c1,-46.3
3,COC(=O)c1cc(S(=O)(=O)NCc2ccc(S(N)(=O)=O)cc2)oc1C,3.94
4,CCCCCCCCNC(=O)c1ccc(C)cc1,10.9
5,O=C1CCc2cc(S(=O)(=O)Nc3ccc(F)cc3)ccc2N1,3.55
6,COc1ccc(NC(=O)C2C3C=CC4(O3)C2C(=O)N(CCCN2CCCCC2)C4C(=O)NC2CCCC(C)C2C)cc1 (stereo not shown),18
7,CC1CCN(C(=O)CSc2nnc(CN3CCOCC3)n2-c2ccccc2)CC1,6.47
8,COc1ccc(CNC(=O)CC2C(=O)NCCN2C2Cc3ccccc3C2)cc1 (stereo not shown),-28.5
9,COc1ccc(NC(=O)CN(C)C(=O)CCC(=O)c2ccc(C)cc2)cc1,-27.2
10,CCCC1O[C@@H]2CC3C4CCC5=CC(=O)C=C[C@]5(C)C4C(OC(C)=O)C[C@]3(C)[C@]2(C(=O)COC(C)=O)O1 (stereo partly shown),-23.1
11,O=C(N/N=C/c1cccc2ccccc12)c1n[nH]c2c1CCCC2,4.23
12,Cc1ccc(C(=O)Nc2sc(Cc3ccc4c(c3)OCO4)c(C)c2C(N)=O)cc1,-3.31
13,Cc1[nH]c2ccc3c(ncn3CCC#N)c2c1C,8.81
14,COc1ncccc1C(=O)N1CCCC(N2CCN(c3cccc(Cl)c3)CC2)C1 (stereo not shown),-10.7
15,CC(NC(=O)c1ccncc1)c1ccccc1 (stereo not shown),16.7
16,Nc1nc(Cl)cc(Oc2ccc([N+](=O)[O-])cc2)n1,8.95
17,Cc1ccc(NC(=O)C2CCCN(S(=O)(=O)c3c(C)noc3C)C2)nc1 (stereo not shown),-18.6
18,COc1cccc(C2(O)CCN(C(=O)C(C)C)CC2)c1,6.04
19,Cc1nnc(SCC(=O)c2cc(C)n(C3CC3)c2C)s1,-3.95
20,Cc1ccc(NC=C(S(=O)(=O)c2ccccc2)S(=O)(=O)c2ccccc2)cc1,7.86
21,Cn1ccnc1C(=O)c1ccc(N)cc1,22.4
22,Cc1ccc(-c2noc(CNC(=O)c3ccoc3C)n2)cc1,10.6

row,SMILES,"hERG current change (%, negative = inhibition) at 10uM [%]"
1,Cc1ccc(C(=O)C[n+]2cc(-c3ccc(C)cc3)n3c2CCCCC3)cc1.[Br-],-53.1
2,CCCc1cc(=O)[nH]c(SCC(=O)N2C(C)CCCC2C)n1 (stereo not shown),0.0814
3,COc1ccc(C(CNC(=O)Nc2ccc(Cl)cc2)N2CCN(C)CC2)cc1 (stereo not shown),-24.5
4,COc1cc(OC)cc(-c2n[nH]c(=S)n2-c2ccc3c(c2)OCO3)c1,15.4
5,COC(=O)c1ccc(C2NC(=O)NC(C)=C2C(=O)N(C)C)cc1 (stereo not shown),8.35
6,CCOC(=O)C1=C(C)NC2=C(C(=O)CCC2)C1c1ccc(N(C)C)cc1 (stereo not shown),0.4
7,CCCn1c(SCC(=O)NC2CCCC2)nnc1-c1ccccn1,11.7
8,Cc1ccc(C(=O)O)cc1S(=O)(=O)NCC1CCCO1 (stereo not shown),0.943
9,CC(C)Cn1c(N)c(C=O)c(=O)[nH]c1=O,9.57
10,O=C(Cn1ncn2c(cc3ccccc32)c1=O)NCCC1=CCCCC1,7.76
11,COc1ccccc1CNC(=O)COC(=O)c1ccc(C)s1,3.82
12,O=C(O)COc1ccc(Br)cc1C(c1c(C(=O)O)[nH]c2ccccc12)c1c(C(=O)O)[nH]c2ccccc12,29.3
13,COc1ccccc1N1C(=O)NC(=O)C(CCc2ccncc2)(CCc2ccncc2)C1=O,-46.6
14,CCOC(=O)c1c(C)c(C(=O)NCCCOC(C)C)c(C)n1C,-4.47
15,C/C(NC(=O)c1cccc(F)c1)=C1/C(=O)C[C@@H]2[C@H]1C2(C)C,12.1
16,O=C(c1ccc2c(c1)OCO2)C1CCCN(Cc2cn[nH]c2-c2cccc(F)c2)C1 (stereo not shown),-78.1
17,CCCCC(=O)N/N=C/c1c(O)n(CCc2ccc(OC)c(OC)c2)c(=O)[nH]c1=O,25.4
18,FC(F)(F)c1cc(C(F)(F)F)c2ccc(N3CCOCC3)nc2n1,7.41
19,CC1CCCN(Cc2nc3c(c(=O)n(C)c(=O)n3C)n2Cc2c(F)cccc2Cl)C1 (stereo not shown),-1.45
20,COc1cccc(-n2c(=O)c3c(C)c(C(=O)N(C)C)sc3n(CC(=O)NCCc3ccc(OC)c(OC)c3)c2=O)c1,15.3
21,Cc1ccc(S(=O)(=O)N2CCOCC2)cc1NC(=O)CSc1nnnn1C1CCCC1,-28.2
